Source: PubChem BioAssay AID588591 (National Center for Advancing Translational Sciences (NCATS), 2011)
Screen size: about 390,000 compounds; about 4,700 (1.2%) were called active. This list was built around the results that the source calls inconclusive (neither active nor inactive); the mix of calls is not that of the screen. Calls come from the whole dose curve; as a rule, active = well fitted inhibition curve with a large enough effect; inconclusive = small, poorly fitted or top-dose-only effect, or another doubt; inactive = no such curve, though single readings can be large or run the other way. Potencies beside an inconclusive call are fits to weak or partial responses and may not hold up.

Biological target: DNA polymerase eta (Homo sapiens) (UniProt Q9Y253)
Chain of UniProt Q9Y253 (Q9Y253 whole entry, looked up): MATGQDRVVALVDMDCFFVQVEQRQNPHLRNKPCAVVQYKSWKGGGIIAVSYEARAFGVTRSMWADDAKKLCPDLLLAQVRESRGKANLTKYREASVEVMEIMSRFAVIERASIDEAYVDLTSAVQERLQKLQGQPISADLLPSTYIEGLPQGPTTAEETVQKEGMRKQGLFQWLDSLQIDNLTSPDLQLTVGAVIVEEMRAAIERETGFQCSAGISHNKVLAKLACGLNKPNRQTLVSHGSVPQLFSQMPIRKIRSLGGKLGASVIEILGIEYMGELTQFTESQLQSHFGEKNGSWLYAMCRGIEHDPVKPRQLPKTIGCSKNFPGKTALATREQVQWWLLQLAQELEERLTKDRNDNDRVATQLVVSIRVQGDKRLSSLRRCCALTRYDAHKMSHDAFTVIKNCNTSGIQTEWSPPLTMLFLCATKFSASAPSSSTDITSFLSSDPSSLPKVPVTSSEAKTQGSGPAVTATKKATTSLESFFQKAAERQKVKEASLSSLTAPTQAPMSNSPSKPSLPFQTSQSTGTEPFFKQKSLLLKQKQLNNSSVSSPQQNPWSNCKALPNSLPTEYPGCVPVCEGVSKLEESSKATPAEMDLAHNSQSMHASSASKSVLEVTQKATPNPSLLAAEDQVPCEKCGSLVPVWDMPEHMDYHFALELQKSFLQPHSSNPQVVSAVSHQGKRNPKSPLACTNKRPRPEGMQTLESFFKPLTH
Experiment: qHTS for Inhibitors of Polymerase Eta
Settings: recombinant Pol eta, fluorescent DNA replication assay; series mostly up to 114 µM; activity change, negative = inhibition: at the top concentration
Text: The Y-family of DNA polymerases, such as Pol eta, are specifically involved in DNA repair. Pol eta copies undamaged DNA with a lower fidelity than other DNA-directed polymerases. However, it accurately replicates UV-damaged DNA; when thymine dimers are present, this polymerase inserts the complementary nucleotides in the newly synthesized DNA, thereby bypassing the lesion and suppressing the mutagenic effect of UV-induced DNA damage. […] Thus, while pol eta's (and most likely iota's) normal function is to protect humans against the deleterious consequences of DNA damage, under certain conditions they can have deleterious effects on human health. As a consequence, we propose to utilize a high throughput replication assay to identify small molecule inhibitors of pol eta. In a collaboration between the National Institute of Child Health & Human Development (NICHD) and NIH Chemical Genomics Center, a high-throughput, fluorescent screen was developed to screen the NIH Molecular Libraries Small Molecule Repository (MLSMR). This screen is used to identify inhibitors of pol eta. NIH Chemical Genomics Center [NCGC] NIH Molecular Libraries Probe Centers Network [MLPCN] MLPCN Grant: MH090825 Assay Submitter (PI): Roger Woodgate, NICHD)
Three microliters of reagents (buffer in column 3 and 4 as negative control and 10 nM Pol eta in columns 1, 2, and 5-48) were dispensed into a 1,536-well black solid-bottomed plate. Compounds (23 nL) were transferred via Kalypsys pin tool equipped with 1536-pin array. The plates were then incubated for 15 min at room temperature, and 1 µL substrate (50 nM final concentration) was added to start the reaction and kinetically read twice at 0 min and 10 min on the Viewlux reader
% is set by controls: 0 for no effect and ±100 for the full control effect; potency is the fitted concentration of half-maximal effect; tags give direction and shape of the fitted curve.

SMILES | Potency | activity change, negative = inhibition
O=C(c1cc(-c2ccco2)on1)N1CCCc2ccccc21 | active: 79.4 µM | –
Cc1ccc(C(=O)/C=C/Nc2ccc(S(=O)(=O)Nc3onc(C)c3C)cc2)cc1 | inconclusive: 22.4 µM [inhibitor, partial curve, poor fit] | –
CCCc1cnc2c(c1SCC(=O)Nc1ccc(C)c(Cl)c1)c(=O)n(C)c(=O)n2C | – | inactive: -7.54%
O=c1n(Cc2ccc(Cl)cc2)c2sc3c(c2c2ncnn12)CCCC3 | inconclusive: 39.8 µM [inhibitor, partial curve, poor fit] | –
COc1ccc(Br)cc1C(=O)NC(=S)Nc1ccc(Cl)c(C(=O)O)c1 | inconclusive: 79.4 µM [inhibitor, partial curve] | –
C=C(C)C(=O)Nc1cccc(C2=NOC3(C2)C[C@@H](C(N)=O)N(C(=O)/C=C/CC)C3)c1 (some centres undefined) | active: 7.94 µM | –
CCOC(=O)COc1cc2c3c(c(=O)oc2cc1C)CCCC3 | inconclusive: 35.5 µM [inhibitor, partial curve, poor fit] | –
COc1ccc(Nc2nc(N)c3cc(OC)c(OC)cc3n2)cc1 | inconclusive: 70.8 µM [inhibitor, single point] | –
CC(NC(=O)Cn1c(=O)oc2cc(S(=O)(=O)NCc3ccccc3)ccc21)c1ccccc1 (centres undefined) | – | inactive: -18.6%
COC(=O)CCC(=O)Nc1cccc2c(NC(=O)CCC(=O)OC)cccc12 | inconclusive: 20 µM [inhibitor, single point] | –
COc1ccc(OC)c2cc3ccccc3cc12 | inconclusive: 2 µM [inhibitor, full curve, poor fit] | –
CCOC(=O)c1sc(NC(=O)c2ccncc2)c(C#N)c1C | inconclusive: 8.91 µM [inhibitor, full curve, poor fit] | –
Cc1ccc(-c2nnc(SCC(=O)N/N=C/c3cccs3)n2-c2ccc(C)cc2)cc1 | inconclusive: 12.6 µM [inhibitor, full curve] | –
Cc1nn(-c2ccccc2)c(Cl)c1/C=C1\SC(=S)N(CCCCCC(=O)O)C1=O | active: 25.1 µM | –
CCOc1ccc2cc(/C=C/C(=O)c3ccco3)c(Cl)nc2c1 | inconclusive: 14.1 µM [inhibitor, full curve] | –
CC(C)(C)OC(=O)NCc1ccc(CNC(=O)c2[nH]cnc2C(=O)N[C@@H](Cc2ccccc2)C(=O)OC(C)(C)C)cc1 | inconclusive: 79.4 µM [inhibitor, partial curve, poor fit] | –
CCOC(=O)CN1C(=O)C(O)(CC(=O)c2ccco2)c2ccccc21 (centres undefined) | inconclusive: 14.1 µM [inhibitor, partial curve, poor fit] | –
N#Cc1ccc(OCC(=O)N2CCN(C(=O)c3ccco3)CC2)cc1 | – | inactive: -19.4%
CN(Cc1ccccc1)C1CCN(Cc2ccccc2[N+](=O)[O-])CC1 | inconclusive: 3.55 µM [inhibitor, partial curve, poor fit] | –
CC(C)c1nn2c(=O)cc(COC(=O)c3ccc(NC(=O)C4CCCCC4)cc3)nc2s1 | active: 79.4 µM | –
Cc1cc(S(=O)(=O)NCCCN2CCOCC2)c(Cl)cc1Cl | inconclusive: 35.5 µM [inhibitor, partial curve, poor fit] | –
O=C(OCC(=O)N1CCN(C(=O)c2ccco2)CC1)c1cc(-c2ccc(Cl)c(Cl)c2Cl)nc2ccccc12 | inconclusive: 8.91 µM [inhibitor, full curve, poor fit] | –

SMILES | Potency | activity change, negative = inhibition
O=C(COC(=O)c1ccc([N+](=O)[O-])s1)NNC(=O)c1ccccc1 | inconclusive: 50.1 µM [inhibitor, partial curve] | –
COc1cccc(-c2nnc(NC(=O)Cc3cccs3)s2)c1 | inconclusive: 31.6 µM [inhibitor, partial curve] | –
N=C1C(c2nc(-c3cccc([N+](=O)[O-])c3)cs2)=C(O)CN1NC(=O)c1ccco1 | active: 50.1 µM | –
CCS(=O)(=O)N1Cc2ccccc2CC1C(=O)Nc1nccs1 (centres undefined) | inconclusive: 35.5 µM [inhibitor, single point] | –
COC(=O)c1ccc(COc2ccc(C3C4=C(CCCC4=O)Nc4onc(C)c43)cc2)cc1 (centres undefined) | inconclusive: 39.8 µM [inhibitor, single point] | –
C=CC(=O)N1C/C(=C/c2ccccc2)C(=O)/C(=C\c2ccccc2)C1 | inconclusive: 20 µM [inhibitor, full curve] | –
COc1ccccc1N(CC(=O)NCc1ccco1)S(=O)(=O)c1ccc(C)cc1 | active: 10 µM | –
O=C(/C=C/c1ccc([N+](=O)[O-])cc1)OCC(=O)c1ccc[nH]1 | inconclusive: 39.8 µM [inhibitor, partial curve, poor fit] | –
COc1ccc(/C=N/NC(=O)c2nc(-c3ccccc3)cc(-c3ccccc3)n2)cc1O | inconclusive: 11.2 µM [inhibitor, partial curve] | –
O=C(Nc1ccc(S(=O)(=O)Nc2nccs2)cc1)c1nn(-c2ccc(F)cc2)ccc1=O | active: 20 µM | –
Cc1ccc(CCNC(=O)c2cc3c(s2)-c2c(C)cccc2OC3)cc1 | inconclusive: 63.1 µM [inhibitor, partial curve, poor fit] | –
O=C(COc1ccccc1-c1nc(-c2ccccc2)no1)Nc1cccc([N+](=O)[O-])c1 | – | inactive: 2.16%
Cn1c(SCc2cc(=O)n3cc(Br)ccc3n2)nnc1C1COc2ccccc2O1 (centres undefined) | inconclusive: 14.1 µM [inhibitor, full curve] | –
CCOC(=O)c1c(-c2ccccc2)oc2ccc(N(C(C)=O)S(=O)(=O)c3ccc(CC)cc3)cc12 | – | inactive: -0.808%
CC1CCN(S(=O)(=O)c2ccc3c(c2)C(Cl)(Cl)C(=O)N3)CC1 | active: 31.6 µM | –
C=CCNC(=S)NC(=O)c1ccc(C)c(Br)c1 | – | inactive: -21.5%
COc1ccc(CCNC(=O)c2ccc3c(c2)N(Cc2ccc(F)cc2)C(=O)CS3)cc1OC | – | inactive: -16.5%
CCOc1cccc2c1N[C@@H](c1ccc(C(=O)O)cc1)[C@H]1CC=C[C@@H]21 | active: 8.91 µM | –
CC(C)(C)C(=O)NC(=S)Nc1ccccc1C(N)=O | inconclusive: 89.1 µM [inhibitor, partial curve, poor fit] | –
CC1CCCC(C)N1C(=O)COC(=O)/C=C/c1ccc(Br)o1 (centres undefined) | active: 22.4 µM | –
CCOc1ccc2nc(N(Cc3ccccc3)C(=O)CCNC(C)=O)sc2c1 | inconclusive: 100 µM [inhibitor, partial curve, poor fit] | –
CCC1CCC(C(=O)NC(C(=O)NCCN2CCOCC2)C(C)C)CC1 (centres undefined) | – | inactive: 1.4%

SMILES | Potency | activity change, negative = inhibition
CCN(CC)C(=O)CC(c1ccc2c(c1)OCO2)c1c(OC)cc(OC)c2ccc(=O)oc12 (centres undefined) | active: 35.5 µM | –
CCOC(=O)C1=C(C)NC(=O)NC1c1ccco1 (centres undefined) | active: 79.4 µM | –
COC1=C(N)C(=O)c2nc(C)ccc2C1=O | active: 8.91 µM | –
COC(C(=O)C(O)C(C)O)C1Cc2cc3cc(OC4CC(OC5CC(O)C(O)C(C)O5)C(O)C(C)O4)c(C)c(O)c3c(O)c2C(=O)C1OC1CC(OC2CC(OC3CC(O)C(OC)C(C)O3)C(O)C(C)O2)C(O)C(C)O1 (centres undefined) | active: 11.2 µM | –
CCOc1ccc(NC(=O)c2c[nH]n3c(=O)cc(C4CCN(C(=O)OC(C)(C)C)CC4)nc23)cc1 | inconclusive: 79.4 µM [inhibitor, single point] | –
O=C(O)c1ccc(NC2=C(n3nnc4ccccc43)C(=O)c3ccccc3C2=O)cc1 | – | inactive: 4.1%
COC(=O)c1ccc(CS(=O)(=O)c2ccc(F)cc2)o1 | active: 22.4 µM | –
COc1ccc(/C=N\NC(=O)c2cc(O)c(O)c(O)c2)cc1COc1ccc(C(=O)OCC(C)C)cc1 | inconclusive: 11.2 µM [inhibitor, full curve, poor fit] | –
FC(F)(F)c1cc(-c2ccco2)nc(NCc2cccs2)n1 | inconclusive: 20 µM [inhibitor, partial curve, poor fit] | –
O=C(Cn1c(=O)n(CC2CCC(C(=O)NCCc3ccccc3)CC2)c(=O)c2ccccc21)Nc1ccccc1 (centres undefined) | – | inactive: -13%
CCCCOc1ccc(C(=O)N/C(=C\c2ccc(OC)cc2)C(=O)OCc2ccco2)cc1 | inconclusive: 39.8 µM [inhibitor, partial curve, poor fit] | –
CCN(CC)S(=O)(=O)c1cc(C(=O)Nc2ccccc2[N+](=O)[O-])ccc1Cl | inconclusive: 79.4 µM [inhibitor, partial curve, poor fit] | –
O=C(CSc1nnnn1-c1ccccc1)NCc1ccco1 | inconclusive: 15.8 µM [inhibitor, full curve, poor fit] | –
COc1ccc(C(=O)N[C@H](C(=O)N2CCN(c3ccccc3F)CC2)C(C)C)cc1 | – | inactive: -1.25%
COc1ccc(OCC(=O)Nc2nc3ccc(NC(C)=O)cc3s2)cc1 | inconclusive: 20 µM [inhibitor, full curve, poor fit] | –
O=C(O)c1ccccc1N/C=C\[N+](=O)[O-] | inconclusive: 28.2 µM [inhibitor, partial curve, poor fit] | –
CCN(CC)CCNC(=O)c1ccc(NC(=O)c2cn(-c3ccc(F)cc3)nc2-c2cccc(OC)c2)cc1 | inconclusive: 89.1 µM [inhibitor, partial curve, poor fit] | –
O=C(CCC1N=C2c3ccccc3N=C(SCC(=O)Nc3cccc(Cl)c3)N2C1=O)NCc1ccco1 (centres undefined) | inconclusive: 100 µM [inhibitor, partial curve, poor fit] | –
CCc1ccc(Nc2nnc(SCc3cc(=O)n4ccsc4n3)s2)cc1 | inconclusive: 20 µM [inhibitor, partial curve] | –
Cc1ccc(S(=O)(=O)N(C)S(=O)(=O)c2ccc(C)cc2)cc1 | inconclusive: 89.1 µM [inhibitor, partial curve, poor fit] | –
